In the RNAGym collection of RNA variant scans (doi:10.1093/nar/gkz1192) one finds self-cleavage data, which are given here for 34 variants.

Sequences and labels used below:
B1: CPEB3 Ribozyme (parent)
chain: UAACAGGGGGCCACAGCAGAAGCGUUCACGUCGCAGCCCCUGUCAGAUUCUGGUGAAUCUGCGAAUUCUGCUGUAUAUCUC

The source gives no read counts; variants with many changes may rest on few reads.

In this data set the parent is B1. Nature of the data set: self-cleavage, relative activity (ratio to wild type); higher = more cleavage; in vitro, sequencing. A digest of the protocol:
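After error-prone PCR and barcoding, CPEB3 ribozyme mutant libraries were transcribed with T7 RNA polymerase at 37°C for 5 hours, then given 15 min with DNase I before an EDTA stop, and they cleaved during both steps. Reverse transcription with template switching preceded Illumina sequencing. Relative activity divides a variant's cleaved/total read fraction by the unmutated ribozyme's. At least 5 reads were required per variant, and three batches were averaged.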
Take UAACAGGGGGCCACAGCAGAAGCGUUCGCGUCGCAGCCCCUGUCAGAUUCUGAUGAAUCUGCGAGUUCUGCUGUAUAUCUC [A28G G53A A65G]: the self-cleavage came out at 0.2.
Regarding UAACAGGGGGCCACAGCAGAAGCGUUCGCGGCGCGGCCCCUGUCAGAUUCUGGUGAAUCUGCGAAUUCAGCUGUAUAUCUC [A28G U31G A35G U69A], the self-cleavage is 0.24.
As for UAACAGGGGGCCACAGCAGAAGCGUUCGCGUCGCAGCCCCUGCCAGAUUCUGGUGAAUCUGCGAAUUCUGCUGUAUGUCUC [A28G U43C A77G], the self-cleavage worked out at 0.19.
In the case of UAACAGGGGGCCACAGCAGAAGCGUUCGCGCCGCAACCCCUGUCAGAUUCUGGUGAAUCUGCGAAUUCUGCUGUAUAUCUC [A28G U31C G36A], the self-cleavage was 0.11.
With UAACAGGGGGCCACAGCAGAAGCGUUCGCGUCCCAGCCCCUGUCAGAUUCUGGUGAGUCUGCGAAUUCUGCUGUAUAUCUC [A28G G33C A57G], the self-cleavage was found to be 0.14.
Then UAACAGGGGGCCACAGCAGAAGCGUUCGCGUCGCAGCCCCUGUCAGACUCUGGUGAAUCCGCGAAUUCUGCUGUAUAUCUC [A28G U48C U60C], with 0.03; and UAACAGGGGGCCACAGCAGAAGCGUUCGCGUCGCAGCCCCUGUCAGAUUCUGGCGAAUCUGCGAAUCCUGCUGUAUAUCCC [A28G U54C U67C U80C], with 0.15.
Then UAACAGGGGGCCACAGCAGAAGCGUUCGCGUCGCAGCCCCUGUCAGAUCCUGGUGUAUCUGCGAACUCUGCUGUAUACCUC [A28G U49C A56U U66C U78C], with 0.11; and UAACAGGGGGCCACAGCAGAAGCGUUCGCGUCGCAGCCCCUGUCAGAUUCAGGUGAAUCAGCGAAUUCUGCUGUAUAUCUC [A28G U51A U60A], with 0.04; and UAACAGGGGGCCACAGCAGAAGCGUUCGCGUCGCAGCCCCUGUCAGAUUCUGGCGAAUCUGCGAGUUCUGCUGUAUAUCUC [A28G U54C A65G], with 0.17.
Take UAACAGGGGGCCACAGCAGAAGCGUUCGCGCCGCAGCCCCUGUCAGACUCUGGUGAAUCUGCGAAUUCUGCUGUAUAUCUC [A28G U31C U48C]: the self-cleavage was determined as 0.16.
For the variant UAACAGGGGGCCACAGCAGAAGCGUUCGCGUCGCAGCCCCUGUCAGAUACUGGCGAAUCUGCGAAUUCUGCUGUAUAUCUC [A28G U49A U54C], the self-cleavage stood at 0.21.
Under UAACAGGGGGCCACAGCAGAAGCGUUCGCGUCGCAGCCCCUGCCAGAUUCUGGUGAAUCUGCGAAUUCUGCUGGAUAUCUC [A28G U43C U74G] stands 0.31; under UAACAGGGGGCCACAGCAGAAGCGUUCGCGUCGCAGCCCCAGUCAGAUUCUGGUGGAUCUGCGAAUUCUGCUGUAUAUCCC [A28G U41A A56G U80C], 0.1; under UAACAGGGGGCCACAGCAGAAGCGUUCGCGUCGCAGCCCCUGCCAGAUUCUGGUGAAUCUGCGAACUCUGCUGUAUAUCUC [A28G U43C U66C], 0.22.
UAACAGGGGGCCACAGCAGAAGCGUUCGCGCGGCAGCCCCUGCCAGAUUCUGGUGAAUCCGCGAAUUCUGCUGUAUACCAC [A28G U31C C32G U43C U60C U78C U80A]: the self-cleavage came out at 0.14.
Consider UAACAGGGGGCCACAGCAGAAGCGUUCGCUUCGCAGCCCCUGUCAGACUCUGGUGAAUCUGCGAAUUCUGCUGUAUAUCUC [A28G G30U U48C], for which the self-cleavage was 0.12.
Under UAACAGGGGGCCACAGCAGAAGCGUUCGCGUCGCAGCCCCUGUCAGAUUCAGGUGAAUCUGCGAAUUCUGCUGUAUAUCGC [A28G U51A U80G] stands 0.55; under UAACAGGGGGCCACAGCAGAAGCGUUCGCGUCGCAGCCCCUGUCAGAAUCAGGUGAAUCUGCGAAUUCUGCUGAAUAUCUC [A28G U48A U51A U74A], 0.43.
As to UAACAGGGGGCCACAGCAGAAGCGUUCGCGUCGCAGCCCCUGUCAGAUUCUGGAGAGUCUGCGAACUCUGCUGUAUAUCUC [A28G U54A A57G U66C], the self-cleavage stood at 0.
Then UAACAGGGGGCCACAGCAGAAGCGUUCGCGUCGCAGCCCCUGUCAGACUCUGGUGAAUCUGCGAGUUCUGCUGUAUAUCUC [A28G U48C A65G], with 0.16; and UAACAGGGGGCCACAGCAGAAGCGUUCGCGCCGCAGCCCCUGUCAGAUUCUGGUGAAUCUGCGUUUUCUGCUGUAUACUUC [A28G U31C A64U A65U U78C C79U], with 0.05; and UAACAGGGGGCCACAGCAGAAGCGUUCGCGACGCAGCCCCUGUCAGAUUCUGGAGAAUCUGCGUAUUCUGCUGUAUAUCUC [A28G U31A U54A A64U], with 0.43.
Consider UAACAGGGGGCCACAGCAGAAGCGUUCGCGACGCAGCCCCUGUCAGAUUCUGGUGAAUCUGCGAAUUCUGCUGUAUACCUC [A28G U31A U78C], for which the self-cleavage came out at 0.13.
Take UAACAGGGGGCCACAGCAGAAGCGUUCGCAUCGCAGCCCCUGACAGAUUCUGGUGAAUCUGCGAAUUCUGCUGUAUAUCUC [A28G G30A U43A]: the self-cleavage was 0.54.
As to UAACAGGGGGCCACAGCAGAAGCGUUCGCGUCGCAGCCCCUGCCAGAUUCUGGAGAAUCUGCGAAUUCUGCUGUAUAUCUC [A28G U43C U54A], the self-cleavage is 0.46.
On to UAACAGGGGGCCACAGCAGAAGCGUUCGCGUCGCAGCCCCAGUCAGAUUCUGGUGAAUCUGCGGAUUCUGCUGUAUACCUU [A28G U41A A64G U78C C81U], for which the self-cleavage was 0.09.
Then UAACAGGGGGCCACAGCAGAAGCGUUCGCGGCGCAGCCCCUGUCGGUUCCUGGUGAAUCUGCGAAUUCUACUGUAUUUCUC [A28G U31G A45G A47U U49C G70A A77U], with 0.1; and UAACAGGGGGCCACAGCAGAAGCGUUCGCUUCGCAGCCCCUGUCAGAUUCUGGUGGAUCUGCGGAUUCUGCAGUAUAUCUC [A28G G30U A56G A64G U72A], with 0.06; and UAACAGGGGGCCACAGCAGAAGCGUUCGCGACGCAGCCCCUGGCAGAUUCUGGUGAAUCUGCGAAUUCUGCUGUAUAUCUC [A28G U31A U43G], with 0.39.
For UAACAGGGGGCCACAGCAGAAGCGUUCGCGUCGCAGCCCCUGUCAGAUUCCGGUGAAUCUGCGAAUUCUGCUGUAUAUCCC [A28G U51C U80C], the self-cleavage was found to be 0.73.
For UAACAGGGGGCCACAGCAGAAGCGUUCGCGUCGCAGCCCCUGUCAGAUUCAGGUGAAUCUACGAAUUCAGCUGUAUAUCUC [A28G U51A G61A U69A], the self-cleavage amounted to 0.2.
As to UAACAGGGGGCCACAGCAGAAGCGUUCGCGUCGCAGCCCCUGUCAGAUUCUGUUGUAUCUGCGAAUUCUGCUGUAUAUCUC [A28G G53U A56U], the self-cleavage was 0.29.
Under UAACAGGGGGCCACAGCAGAAGCGUUCGCGUCGCAGCCCCUGUCAGAUUCCGGUGAAUCUGCGAAUUCUGCCGUAUAUCUU [A28G U51C U72C C81U] stands 0.8.
